# The other results are listed elsewhere or left out.
# B1: PhoQ; a variant is named by its letters at X, in order, P23837 (parent)
# chain: MKKLLRLFFPLSLRVRFLLATAAVVLVLSLAYGMVALIGYSVSFDKTTFRLLRGESNLFYTLAKWENNKLHVELPENIDKQSPTMTLIYDENGQLLWAQRDVPWLMKMIQPDWLKSNGFHEIEADVNDTSLLLSGDHSIQQQLQEVREDDDDAEMTHSVAVNVYPATSRMPKLTIVVVDTIPVELKSSYMVWSWFIYVLSANLLLVIPLLWVAAWWSLRPIEALAKEVRELEEHNRELLNPATTRELTSLVRNLNRLLKSERERYDKYRTTLTDLTHSLKTPLXXLQXXLRSLRSEKMSVSDAEPVMLEQISRISQQIGYYLHRASMRGGTLLSRELHPVAPLLDNLTSALNKVYQRKGVNISLDISPEISFVGEQNDFVEVMGNVLDNACKYCLEFVEISARQTDEHLYIVVEDDGPGIPLSKREVIFDRGQRVDTLRPGQGVGLAVAREITEQYEGKIVAGESMLGGARMEVIFGRQHSAPKDE
# Variants of: B1
# Assay: enrichment ratio after two sorts for PhoP signalling (ratio (wild type AVST 3.29)); higher = more functional
# Details: with PhoP (E. coli)
row,Variant,enrichment ratio
1,LNAI,≤ 0.25
2,MGFD,≤ 0.25
3,KFDK,≤ 0.25
4,IILH,≤ 0.25
5,YGAY,≤ 0.25
6,LFRP,≤ 0.25
7,HQST,≤ 0.25
8,HWDM,≤ 0.25
9,VSAN,≤ 0.25
10,YWML,≤ 0.25
11,YIIG,≤ 0.25
12,YFHP,≤ 0.25
13,NHRR,≤ 0.25
14,TINW,≤ 0.25
15,GLTV,5.07
16,LAAG,≤ 0.25
17,PLEI,≤ 0.25
18,WRSL,≤ 0.25
19,GHTP,≤ 0.25
20,ERHR,≤ 0.25
21,TPTT,≤ 0.25
22,QFNG,≤ 0.25
23,NRAG,≤ 0.25
24,SIFR,1.77

row,Variant,enrichment ratio
1,EYSC,≤ 0.25
2,VTLS,5.55
3,GDKL,≤ 0.25
4,GENQ,≤ 0.25
5,NCKD,≤ 0.25
6,YNIG,≤ 0.25
7,FCMM,8.52
8,VIDP,≤ 0.25
9,TNQE,≤ 0.25
10,EPWM,≤ 0.25
11,HTIR,≤ 0.25
12,HDML,≤ 0.25
13,WRLH,≤ 0.25
14,SDTW,≤ 0.25
15,AHWV,≤ 0.25
16,YTMN,≤ 0.25
17,FVAL,≤ 0.25
18,LRWS,≤ 0.25
19,VQQP,≤ 0.25
20,SMLA,6.54
21,MFRT,≤ 0.25
22,YDHF,≤ 0.25
23,FEHM,≤ 0.25
24,MYGD,≤ 0.25

row,Variant,enrichment ratio
1,FWYE,≤ 0.25
2,NSGK,≤ 0.25
3,KDPP,≤ 0.25
4,GGLE,≤ 0.25
5,KAIC,≤ 0.25
6,ECNF,≤ 0.25
7,PMWW,≤ 0.25
8,YVVG,≤ 0.25
9,PFWH,≤ 0.25
10,NTCW,≤ 0.25
11,EFWV,≤ 0.25
12,PIQR,≤ 0.25
13,GNYP,≤ 0.25
14,FIYA,≤ 0.25
15,MVAF,8.08
16,IGPF,≤ 0.25
17,AEFN,≤ 0.25
18,DAAK,≤ 0.25
19,FSFM,≤ 0.25
20,FTMM,12.1
21,ADHI,≤ 0.25
22,TRKQ,≤ 0.25
23,GVGM,≤ 0.25
24,FCER,≤ 0.25

row,Variant,enrichment ratio
1,DVAL,≤ 0.25
2,IAPM,≤ 0.25
3,WTDW,≤ 0.25
4,KHRW,≤ 0.25
5,MITC,≤ 0.25
6,PSIP,≤ 0.25
7,VNPD,≤ 0.25
8,TCNA,9.43
9,HNFQ,≤ 0.25
10,IADK,≤ 0.25
11,SVVM,0.559
12,DMIE,≤ 0.25
13,AYHY,≤ 0.25
14,SRQG,≤ 0.25
15,IYLS,≤ 0.25
16,VPWN,≤ 0.25
17,SLGP,≤ 0.25
18,PLQR,≤ 0.25
19,PGNH,≤ 0.25
20,KECP,≤ 0.25
21,IDAP,≤ 0.25
22,KPLC,≤ 0.25
23,LIKW,≤ 0.25
24,SDIT,≤ 0.25

row,Variant,enrichment ratio
1,NHTV,≤ 0.25
2,NRCA,≤ 0.25
3,ELPD,≤ 0.25
4,IVIL,≤ 0.25
5,EFER,≤ 0.25
6,RGRT,≤ 0.25
7,FWQD,≤ 0.25
8,RKEM,≤ 0.25
9,YRIV,≤ 0.25
10,PMQS,≤ 0.25
11,GKFR,≤ 0.25
12,TYWM,≤ 0.25
13,KQRS,≤ 0.25
14,HRIQ,≤ 0.25
15,NCLF,≤ 0.25
16,LQRR,≤ 0.25
17,PMMD,≤ 0.25
18,RQWM,≤ 0.25
19,WHLP,≤ 0.25
20,PHPQ,≤ 0.25
21,VSRP,≤ 0.25
22,ISSA,≤ 0.25
23,RLTS,≤ 0.25
24,LECC,0.75

row,Variant,enrichment ratio
1,NCGP,≤ 0.25
2,TQVW,≤ 0.25
3,ALIY,≤ 0.25
4,ANSY,9.49
5,YEDQ,≤ 0.25
6,DWFH,≤ 0.25
7,WNLW,≤ 0.25
8,GQDQ,≤ 0.25
9,EEEC,≤ 0.25
10,FIWL,≤ 0.25
11,YWIR,≤ 0.25
12,IVIN,≤ 0.25
13,GQQH,2.74
14,YWRT,≤ 0.25
15,FYCD,≤ 0.25
16,MLVI,≤ 0.25
17,DQTK,8.07
18,PIAE,≤ 0.25
19,PWTC,≤ 0.25
20,SHKG,≤ 0.25
21,REPQ,≤ 0.25
22,WTAY,≤ 0.25
23,LFGK,≤ 0.25
24,PPGG,≤ 0.25

row,Variant,enrichment ratio
1,NMVV,≤ 0.25
2,IGFI,≤ 0.25
3,DWTR,≤ 0.25
4,HLCY,≤ 0.25
5,GFVC,≤ 0.25
6,LMGR,≤ 0.25
7,GQVP,≤ 0.25
8,HRSG,≤ 0.25
9,EMWP,≤ 0.25
10,PGQV,≤ 0.25
11,HTAQ,≤ 0.25
12,GQMD,≤ 0.25
13,IDCN,≤ 0.25
14,NDWR,≤ 0.25
15,IWGG,≤ 0.25
16,RCIV,≤ 0.25
17,RLFG,≤ 0.25
18,SAWV,≤ 0.25
19,ILYY,≤ 0.25
20,KDHS,≤ 0.25
21,GQFT,≤ 0.25
22,VYVW,≤ 0.25
23,QSRV,≤ 0.25
24,KNWI,≤ 0.25

row,Variant,enrichment ratio
1,VPTL,≤ 0.25
2,AFHG,≤ 0.25
3,DATC,≤ 0.25
4,IMNC,≤ 0.25
5,TYTE,≤ 0.25
6,QHIK,≤ 0.25
7,NIIV,≤ 0.25
8,AFCI,≤ 0.25
9,VGDM,≤ 0.25
10,FFMP,≤ 0.25
11,ICNW,≤ 0.25
12,PPCC,≤ 0.25
13,SHAH,5.87
14,HWYF,≤ 0.25
15,FHSH,≤ 0.25
16,PGDY,≤ 0.25
17,FLMW,≤ 0.25
18,NPIM,≤ 0.25
19,VTIW,≤ 0.25
20,HITC,≤ 0.25
21,VEVA,≤ 0.25
22,FDES,≤ 0.25
23,MMVT,≤ 0.25
24,SDAP,≤ 0.25

row,Variant,enrichment ratio
1,YIAI,0.393
2,VGEL,≤ 0.25
3,RLFK,≤ 0.25
4,TQRH,≤ 0.25
5,GHFW,≤ 0.25
6,ASHI,≤ 0.25
7,DYVS,≤ 0.25
8,VVQH,≤ 0.25
9,AKQV,≤ 0.25
10,WWSF,≤ 0.25
11,MGCP,≤ 0.25
12,LVRP,≤ 0.25
13,PHCK,≤ 0.25
14,ERYN,≤ 0.25
15,WPDM,≤ 0.25
16,WSIE,≤ 0.25
17,NPFW,≤ 0.25
18,MVWT,≤ 0.25
19,KRCN,≤ 0.25
20,SFEL,≤ 0.25
21,YRML,≤ 0.25
22,IPDN,≤ 0.25
23,VKRA,≤ 0.25
24,DKIH,≤ 0.25

row,Variant,enrichment ratio
1,RGLM,≤ 0.25
2,STSW,≤ 0.25
3,RSQY,≤ 0.25
4,AHKA,≤ 0.25
5,DPMF,≤ 0.25
6,GRNN,≤ 0.25
7,QIFC,≤ 0.25
8,WDPT,≤ 0.25
9,RGTI,≤ 0.25
10,YFRV,≤ 0.25
11,VLVG,≤ 0.25
12,NLQW,≤ 0.25
13,SDFW,≤ 0.25
14,PTPY,≤ 0.25
15,VFNV,≤ 0.25
16,LHAC,≤ 0.25
17,VMSK,≤ 0.25
18,EQLD,≤ 0.25
19,WLHM,≤ 0.25
20,QCKT,≤ 0.25
21,DDQA,≤ 0.25
22,DSTG,≤ 0.25
23,FHGC,≤ 0.25
24,ANHC,≤ 0.25

row,Variant,enrichment ratio
1,WIGL,≤ 0.25
2,PVII,≤ 0.25
3,DTWS,≤ 0.25
4,NDSD,≤ 0.25
5,HNLV,≤ 0.25
6,EVFY,≤ 0.25
7,RSRM,≤ 0.25
8,IAHP,≤ 0.25
9,NNMS,≤ 0.25
10,PRDW,≤ 0.25
11,ALKV,≤ 0.25
12,PAVH,≤ 0.25
13,YCNS,≤ 0.25
14,EVTI,≤ 0.25
15,IPWK,≤ 0.25
16,LGRH,≤ 0.25
17,MCKS,≤ 0.25
18,SWIA,≤ 0.25
19,NCPV,≤ 0.25
20,IHVF,≤ 0.25
21,WMTD,≤ 0.25
22,YNCH,≤ 0.25
23,MGKK,≤ 0.25
24,HLDR,≤ 0.25

row,Variant,enrichment ratio
1,TKPF,≤ 0.25
2,LLWT,≤ 0.25
3,HHMY,≤ 0.25
4,HRKE,≤ 0.25
5,KCAV,≤ 0.25
6,AISP,≤ 0.25
7,YQSQ,≤ 0.25
8,TYMP,≤ 0.25
9,MMGQ,≤ 0.25
10,QNWW,≤ 0.25
11,RLVE,≤ 0.25
12,TAES,≤ 0.25
13,QLGP,≤ 0.25
14,PKHR,≤ 0.25
15,FFKP,≤ 0.25
16,GSKV,≤ 0.25
17,HLYS,≤ 0.25
18,DPCT,≤ 0.25
19,MYMA,≤ 0.25
20,ETQD,≤ 0.25
21,LNPN,≤ 0.25
22,WYAF,≤ 0.25
23,YYEH,≤ 0.25
24,LDMS,≤ 0.25

row,Variant,enrichment ratio
1,LPPK,≤ 0.25
2,PKNR,≤ 0.25
3,VSEM,≤ 0.25
4,YAAW,≤ 0.25
5,KSVL,≤ 0.25
6,IILL,1.2
7,DWMI,≤ 0.25
8,FSQR,≤ 0.25
9,SASQ,9.12
10,HEGH,≤ 0.25
11,RLCY,≤ 0.25
12,MFKI,≤ 0.25
13,TMYR,≤ 0.25
14,GVMY,≤ 0.25
15,ESGC,≤ 0.25
16,LKKY,≤ 0.25
17,YRRT,≤ 0.25
18,HDYT,≤ 0.25

# — a collection of fitness landscapes (doi:10.1126/science.1257360)
